# Assay results as given in PMC4242493.
# This is one part of the list. The list includes weakly bound sequences.
# Molecular target: MaxL homodimer (UniProt P61244)
# Test: universal protein-binding microarray (PBM)
# Conditions: PBS-based mixture, 10 nM His-tagged protein dimer, 2% milk, 200 ng/uL BSA, 50 ng/uL salmon testes DNA, 0.02% TX-100; detection with Alexa 488 anti-His …; high values mean tight binding; most listed sequences are background and not binding sites; double strand, one strand shown
# Chain of UniProt P61244 (P61244 whole entry): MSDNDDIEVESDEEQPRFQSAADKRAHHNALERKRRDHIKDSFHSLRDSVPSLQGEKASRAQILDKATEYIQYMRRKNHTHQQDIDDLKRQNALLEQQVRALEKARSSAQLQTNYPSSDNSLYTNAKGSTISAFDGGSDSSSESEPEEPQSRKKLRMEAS
row,Sequence,binding signal (normalized occupancy)
1,GTCCAAAC,0.0666
2,CCCCGCCG,0.0728
3,ACACAAGA,0.0795
4,GAAGACGC,0.0715
5,TACCTGAA,0.0719
6,ACAAACCG,0.0718
7,AGACCCAA,0.0696
8,CGTGCTCA,0.0935
9,CTGATCCC,0.0769
10,CTCTTTTA,0.0744
11,ATGGGTTG,0.0793
12,TACGGGGA,0.0726
13,CCTCTCCA,0.0786
14,CAAATTTA,0.0699
15,CGTGCCTA,0.0868
16,AGCCCGAC,0.0683
17,AGGTCCAG,0.0699
18,ACTTAAGA,0.0765
19,GAGGAACC,0.0734
20,AGACATCG,0.0727
21,GGGATACA,0.0809
22,AAGACCAA,0.0715
23,CTTGTGAA,0.0741
24,AAAAGTAG,0.0741
25,GTTGTCTA,0.0802

row,Sequence,binding signal (normalized occupancy)
1,CCTTGATC,0.0765
2,CGCAAGCC,0.0696
3,AAGTCGGG,0.0761
4,AATTTAGC,0.0736
5,AAATTCTC,0.0738
6,AAAGGCTC,0.0692
7,GAGCGTCC,0.0671
8,AGACTGTC,0.075
9,GCGAGTCC,0.0694
10,CAAGTATC,0.0768
11,GCTGGGTA,0.073
12,CCCTCCTA,0.0809
13,AGGGAGTC,0.0743
14,GATGCGAC,0.0759
15,AGTAGAGG,0.0739
16,ATCCGTTG,0.0722
17,CACATAAA,0.0786
18,ATGCTGTC,0.0841
19,ATATGCTG,0.0875
20,CGTACGAG,0.0761
21,AAACTGCT,0.0693
22,GTCTACCA,0.074
23,CTTTCGAA,0.0667
24,GAAAATTC,0.0728
25,AGAGTAGG,0.0708

row,Sequence,binding signal (normalized occupancy)
1,AATATAAT,0.0785
2,CGTTGTAC,0.0819
3,CCAACAAA,0.0724
4,AGAAAGTG,0.0763
5,AGCTGTAG,0.075
6,CACCAGAA,0.0736
7,CGCGAACG,0.0677
8,GAAATTGA,0.0711
9,ATGGCACC,0.0825
10,CATTCGGG,0.0777
11,ACCACTAA,0.076
12,ACATCTCG,0.0786
13,CGGTATTA,0.0728
14,ACATCGTC,0.0753
15,ACTCAGTA,0.074
16,AAAAGCTT,0.0699
17,CACTTGCA,0.0726
18,ACTAGTAT,0.0807
19,GACTCTCC,0.0731
20,CGAAACTC,0.0685
21,AACACTAA,0.0746
22,GAGGTGCA,0.0745
23,ATGTCAAG,0.0844
24,AATTCACT,0.0705
25,ACGCCCTG,0.0733

row,Sequence,binding signal (normalized occupancy)
1,CCACTGAC,0.0696
2,AGCTTGTA,0.0717
3,CTGATAGC,0.0726
4,AGCCCGAA,0.0662
5,ACAGTTTC,0.0713
6,ATAATTTA,0.0836
7,ACCTTTAC,0.0742
8,CAGACACG,0.0847
9,GATGATTA,0.0816
10,CGTACCCC,0.0786
11,AGTATGTC,0.0803
12,ACCAGTAT,0.0747
13,ACGTTTCC,0.0762
14,GCTAAGTA,0.0772
15,ACGTGACC,0.103
16,AAGTCAAC,0.0755
17,AGAGCGTC,0.0678
18,ATCTCCAG,0.0696
19,AGGTAAGC,0.0738
20,ACTTTCTA,0.0745
21,AGGGCTCC,0.0665
22,AAACCAAT,0.0735
23,AACTCTCT,0.0731
24,ATTTTTTA,0.0778
25,CGGAACTA,0.0675

row,Sequence,binding signal (normalized occupancy)
1,AGTTTGGC,0.0716
2,TCCAGTAA,0.07
3,GCGTTCCA,0.0746
4,AGATCGAT,0.0761
5,CAAGTACG,0.0752
6,AATGGAGG,0.0754
7,CATAAATC,0.0857
8,TGGTTAAA,0.0737
9,AATGCTCT,0.0747
10,ACCGCAGA,0.0692
11,GGTACATA,0.0815
12,CATTGCAG,0.0775
13,AGAGCAAA,0.0684
14,ACTGACCA,0.0743
15,ATATCGGG,0.0805
16,CGGGACAA,0.074
17,CTCGTGTC,0.0959
18,CGAGAAAC,0.0718
19,CGCTCCAG,0.0653
20,TGCACGCA,0.0894
21,ACATGTAA,0.0953
22,GTTTTCTA,0.072
23,CCATATCG,0.083
24,GACATAAA,0.0815
25,TTCGGAAA,0.0698

row,Sequence,binding signal (normalized occupancy)
1,ATGTTACC,0.0845
2,ACTTACGG,0.0731
3,GACGGAGA,0.0651
4,AAACAATT,0.0739
5,CTGGATAC,0.0737
6,ACTGCGAA,0.0662
7,CGCGTTGA,0.08
8,CCCGTCCA,0.0734
9,ATCCACTG,0.0816
10,ACGGATAG,0.0781
11,AGGGGAAG,0.0795
12,GGAAGCCA,0.069
13,CTATCGGA,0.0709
14,AACGTGGT,0.125
15,CGTCACTA,0.076
16,AGGTCCTA,0.0693
17,ACAGGCCG,0.0686
18,CAATTATA,0.0772
19,CCCTTGTA,0.0775
20,TGCAACAA,0.0748
21,CAGCTAAG,0.0679
22,AAAGTATA,0.0844
23,ACTGTACG,0.0741
24,GGAGCAAA,0.0728
25,ATACGATA,0.0815

row,Sequence,binding signal (normalized occupancy)
1,CCTTAGAA,0.072
2,ACTAGAAG,0.0716
3,CACGTCGA,0.0845
4,CATTGGAC,0.0728
5,ACCCCCGG,0.0755
6,ATAGACGA,0.0769
7,CGTAACTA,0.0731
8,ATCGTTGA,0.0726
9,ATTACTTA,0.0809
10,CCTTAGCC,0.0725
11,AATAAGTC,0.0763
12,CTGCTTCC,0.0756
13,GAACATAA,0.0784
14,AGATGCAG,0.0757
15,ACCTGGCC,0.0741
16,GCTTAAAA,0.0678
17,AAAAAGCC,0.0676
18,AATGCCAG,0.0707
19,CGACGTAC,0.0724
20,CCATCGAG,0.0792
21,AGGCGTCA,0.0742
22,CCGGACAG,0.0651
23,ACTGCGCC,0.068
24,CAAGGGTG,0.0782
25,CCCAGCCA,0.0739

row,Sequence,binding signal (normalized occupancy)
1,AGGGTCCG,0.0755
2,CCTAGCGC,0.0666
3,ACGTCTCG,0.0779
4,CTCACCAG,0.0787
5,CCAACAGG,0.0721
6,CTATTATC,0.0781
7,CAAAACTG,0.0725
8,ACTGCATG,0.0859
9,AGCGGCCC,0.0653
10,CCCGAAGA,0.0718
11,CTGTCCGC,0.0678
12,AGCCAAAG,0.0651
13,GTTAACAA,0.0757
14,CTCTGCAC,0.0765
15,ATCGTTTC,0.0713
16,CCAAGCAG,0.0713
17,AAATAGAA,0.0773
18,TGCCACAA,0.0763
19,CCGGTCGC,0.0674
20,TAAGGTAA,0.0774
21,CCGTCGCG,0.0659
22,CAAGGGCA,0.0702
23,ATAGAGAA,0.0756
24,AATTATCT,0.0784
25,TATAAGCA,0.082

row,Sequence,binding signal (normalized occupancy)
1,GTGAGTTA,0.0792
2,CGGGGCTC,0.0728
3,ATAGAGTA,0.0751
4,AGTGAAAT,0.0717
5,TGACTCAA,0.0763
6,CTTAAAAG,0.0711
7,AAAATGGG,0.0708
8,ATGCAACG,0.0795
9,GCCCTTAA,0.0705
10,ATGACTGG,0.0768
11,GTGTGAAC,0.0828
12,GGCAGTTA,0.0763
13,ACGGAGTG,0.0717
14,CATGTAGA,0.0902
15,ACAGACGC,0.0718
16,CCCTACGC,0.0715
17,AATAATAT,0.0855
18,GGTCAGGA,0.0732
19,ACGTCGCC,0.0811
20,CATGGCGC,0.0766
21,GAGGAGAA,0.0783
22,GGCTCCCC,0.0676
23,GCATCTTA,0.0771
24,AACGCTAG,0.0726
25,ATCGGCAG,0.0718

row,Sequence,binding signal (normalized occupancy)
1,CATACGCC,0.081
2,TCCCGCGA,0.0717
3,CATGAATA,0.0928
4,GGATCTAA,0.0779
5,GAAAGCTA,0.0705
6,GAAAGAGC,0.0721
7,CCATAAAA,0.0859
8,GCGAGAAA,0.0748
9,CTTCAGCC,0.0718
10,ACAGGGGC,0.0765
11,AGTGCCGG,0.0762
12,ATTTATGC,0.0838
13,CTAGCCTA,0.0691
14,CTGCCGCA,0.0734
15,GAGTCGGC,0.0659
16,AGCGGACT,0.0703
17,GTCTGGGA,0.0714
18,CCTGCGTC,0.0706
19,CTAGTGGA,0.0754
20,CCAGAAAA,0.0716
21,CGGGTCTA,0.076
22,GCCGACGC,0.0701
23,ACAGGTTA,0.0784
24,ATCTTGCG,0.0776
25,TGCCACCA,0.0815

row,Sequence,binding signal (normalized occupancy)
1,ATCGCCGC,0.0728
2,TCAAGACA,0.0708
3,CACGGGGG,0.101
4,ACAAGTAA,0.0794
5,GCGAACAC,0.0778
6,ATATCAAG,0.0794
7,AACATGTC,0.087
8,ATTTTAAG,0.0735
9,CTCCTAGC,0.0746
10,CGATACAC,0.0865
11,ACATAGTC,0.0786
12,TCATAGAA,0.0768
13,TAGATGAA,0.0818
14,CAGGCGAC,0.0738
15,CACATGCG,0.159
16,AATGCATA,0.0839
17,AGGACTGC,0.0704
18,ACTCATCC,0.0806
19,AGCTTTCA,0.0682
20,GGACGACA,0.0737
21,CGGTACTA,0.0725
22,CACTATGA,0.0828
23,ACGAATGC,0.0793
24,ATCACTTC,0.0797
25,GAAATGCC,0.077

row,Sequence,binding signal (normalized occupancy)
1,GACCATAC,0.0805
2,GCGCATGA,0.0897
3,CAGCACTG,0.0698
4,AAGCCTCC,0.072
5,GTGAAGTA,0.0777
6,AGGCAAAC,0.0684
7,AGTTACGC,0.0736
8,CAACAAAA,0.0692
9,AAGAACGT,0.0766
10,ACAACTGA,0.0763
11,TGCCGCAA,0.0788
12,ACCGAAAC,0.0726
13,CTCTCTTC,0.0708
14,CTACACAA,0.0806
15,ACCAGCCA,0.0723
16,CATGATAG,0.0847
17,TACTGCTA,0.075
18,TCGCTACA,0.0793
19,GAGCCCAC,0.0761
20,AGCGCTGG,0.0684
21,CCCCTTAG,0.0716
22,ATGCAAAT,0.0818
23,ATCGTACA,0.0781
24,ACTAAACC,0.0782
25,GGTCTATA,0.085

row,Sequence,binding signal (normalized occupancy)
1,GTGTACAA,0.0803
2,GAGTATCC,0.0728
3,AAGGGATC,0.0712
4,AAGCGGGT,0.0679
5,AAGAGCGC,0.0706
6,GACCAACC,0.0713
7,CGCTTCAA,0.0675
8,GGTGCCTA,0.0773
9,ATCTGATC,0.0784
10,AGTCCAAG,0.0718
11,CTACAACA,0.0787
12,GAGCGGGC,0.0706
13,AAGGCCGG,0.0664
14,ATAATGTG,0.095
15,GCCCGCGA,0.0664
16,AGGAAAAC,0.075
17,CTTTCGTA,0.0752
18,TGAGGGAA,0.0785
19,ACTGGCAA,0.0759
20,GGCTACAA,0.0713
21,AGCCTAGA,0.0731
22,ACCTCAAG,0.0765
23,CGTATGTC,0.0795
24,CCTTGTAG,0.0734
25,CAGCAGAG,0.0727

row,Sequence,binding signal (normalized occupancy)
1,GCGGCCAC,0.072
2,CACACGGG,0.0889
3,GTCATCAA,0.0782
4,AGAACGCT,0.0696
5,CCCACGAG,0.0996
6,CGTTAAAC,0.0747
7,ATTCCGCC,0.0717
8,CAGTTAAC,0.0727
9,TAACTGTA,0.0739
10,TATACCCA,0.0824
11,AATCGTGA,0.0761
12,GCATACAC,0.0833
13,ACAGTGCT,0.0742
14,GTCAATGA,0.0811
15,ACCTAGGA,0.0732
16,GCCTCCGA,0.0697
17,CTGCGGGC,0.0698
18,GTAGGAGA,0.0744
19,AGACCGTG,0.0745
